# Laboratory results published in PubChem BioAssay AID1345083 (National Center for Advancing Translational Sciences (NCATS), 2018).
# The whole screen tested about 94,000 compounds, of which about 6,200 (6.6%) were called active. This list was built around the results that the source calls inconclusive (neither active nor inactive); the mix of calls is not that of the screen. The call rests on the fitted dose curve; in most records, active means well fitted inhibition curve with a large enough effect; inconclusive means small, poorly fitted or top-dose-only effect; inactive means flat fitted curve, though single readings scatter. Where the call is inconclusive, the potency comes from a doubtful curve fit.
# Test: Cytotoxic Profiling in HEK 293 Cell Line of Diverse Libraries Using Quantitative High-Throughput Screening; further: nearly all actives have a fitted effect of over 60% in size
# Details: HEK 293 viability, ATP luminescence (CellTiter-Glo), 48-72 h; activity change, negative = cytotoxicity: at 115 µM (top of the series) unless noted; series mostly up to 115 µM
# Outline: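 ATP-coupled CellTiter-Glo luminescence served as viability read-out, recorded 10 min after reagent addition at room temperature. HEK 293 cells, 250 cells/well, had been incubated with pintool-transferred compound for 48 or 72 hr at 37 degree Celsius.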
# On the % scale 0 is the no-effect control and ±100 the full control effect; potency means the concentration at half of the fitted maximal effect; tags describe the fitted curve by direction and shape.
SMILES,"activity change, negative = cytotoxicity",Potency,outcome
CS(=O)(=O)N1CCOc2ccc(CCC(=O)NCc3ccccn3)cc2C1,inactive: -25%,,
C[C@H]1[C@@H]2[C@@H](O)C([C@H](C)C(=O)NCc3cccs3)CC[C@@]2(C)CC[C@@H]1NC(=O)COc1ccccc1 (stereo not given in full),,"inconclusive: 56.2 µM [inhibitor, partial curve, poor fit]",
C[C@@H]1CN(C(=O)c2cccc(C#N)c2)C[C@]1(C)O,inactive: -6.48%,,
COc1ccccc1Nc1ccnc(N2CCCC(C(=O)NCCSC)C2)n1 (stereo not given),,"inconclusive: 35.5 µM [inhibitor, partial curve, poor fit]",
CCN(CC)Cc1cnc2c(C(=O)NC(C3CC3)C3CC3)cnn2c1,inactive: -13.8%,,
CC(C)CNC(=O)N1CCC(c2noc(C3CC3)n2)C1 (stereo not given),inactive: -2.66%,,
Cc1cc(C)c(CNC(=O)c2nc(-c3cccnc3)cc3c2ccn3C(C)C)c(=O)[nH]1,,active: 100 µM,
CC1CCN(CC[C@@H]2CC[C@H](O)[C@@H](C(=O)Nc3ccccc3)O2)CC1,,"inconclusive: 112 µM [inhibitor, partial curve, poor fit]",
O=C(NCC1CCCCC1)c1nc2sccn2c1-c1ccccc1,,"inconclusive: 56.2 µM [inhibitor, single point]",
COc1ccc(C(=O)Nc2nc3c(s2)C[C@@H]2[C@](C)(CO)[C@H](O)CC[C@@]2(C)[C@@H]3CC(=O)N2CCC(C)CC2)cc1,,"inconclusive: 39.8 µM [inhibitor, full curve, poor fit]",
CC1=C[C@@H](CN2CCN(c3cnccn3)CC2)[C@H](C(C)C)C[C@H]1Cc1nnc(-c2ccccc2)o1,,active: 25.1 µM,
COc1ccc(CCC(=O)NCc2nnc3c(-c4nc(C(C)C)no4)cccn23)cc1,,,inactive
c1ccc(-c2nc(-c3cnccn3)no2)c(OC2CCNC2)c1 (stereo not given),,"inconclusive: 89.1 µM [inhibitor, partial curve, poor fit]",
Cc1ccccc1-c1cc(C(=O)NCc2cnn(C)c2)c2c(c1)N(C)CCO2,,"inconclusive: 89.1 µM [inhibitor, partial curve]",
O=C1Nc2cc(Cl)ccc2C(=O)N2CCN(C(=O)C3CCCCC3)C[C@H]12,,"inconclusive: 89.1 µM [inhibitor, partial curve, poor fit]",
C#CCNC(=O)C[C@@H]1c2nc(NC(=O)c3ccc(C(C)(C)C)cc3)sc2C[C@@H]2[C@](C)(CO)[C@H](O)CC[C@]21C,,"inconclusive: 50.1 µM [inhibitor, partial curve, poor fit]",
CC(C)NC(=O)NC[C@H]1OC[C@@H](NCc2cccc(C#N)c2)[C@@H]1O,inactive: -17.5% [at 172 µM],,
CCC1(N2CCN(C(=O)Nc3cccc(F)c3C)CC2)CCN(C(=O)C(C)C)C1 (stereo not given),inactive: -7.97%,,
COCCn1c(=O)c(C(=O)NCc2ccc(C(F)(F)F)cc2)nc2cccnc21,,"inconclusive: 70.8 µM [inhibitor, partial curve, poor fit]",
CN1CCN(c2cc(=O)c3ccnc(N4CCN(c5ccccn5)CC4)c3o2)CC1,,,inactive [at 172 µM]

SMILES,"activity change, negative = cytotoxicity",Potency,outcome
Cn1cccc1CN1CCC2(COc3ccccc3C(=O)N2)C1 (stereo not given),,"inconclusive: 70.8 µM [inhibitor, partial curve, poor fit]",
C[C@@H]1CN(c2ccc(C(=O)N3CCC(N4CCOCC4)CC3)cn2)C[C@H](C)O1,inactive: -27.5%,,
CC(C)CCN1CCCC(COc2ccccc2C(=O)NC2CC2)C1 (stereo not given),inactive: -29.1%,,
COCCOc1ncccc1-c1noc([C@@H]2CCCN2Cc2cccc(C#N)c2)n1,,"inconclusive: 100 µM [inhibitor, partial curve]",
COc1ccc(C2(C(=O)NCCC3CCN(C(=O)Nc4ccc(C)cc4)CC3)CC2)cc1,,"inconclusive: 50.1 µM [inhibitor, partial curve, poor fit]",
Cc1noc2c(N3CC[S+](=O)([O-])CC3)cc(-c3cccc(C(F)(F)F)c3)nc12,,"inconclusive: 112 µM [inhibitor, partial curve]",
O=C(NCc1ccc(C(F)(F)F)cc1)c1cc(-c2ccsc2)c2nncn2n1,,"inconclusive: 35.5 µM [inhibitor, partial curve, poor fit]",
Cc1ccc(Cc2c(C)nc3c(C(=O)N4CCC(Cc5nncn5CC5CC5)CC4)cnn3c2C)cc1,,"inconclusive: 35.5 µM [inhibitor, partial curve]",
COc1ccccc1C(=O)NC1CCN(c2cc(C(F)(F)F)nc(C)n2)CC1,,"inconclusive: 50.1 µM [inhibitor, partial curve, poor fit]",
CN(C)c1cccc(Oc2nnnn2[C@H]2CO[C@H]3[C@@H]2OC[C@@H]3NC(=O)c2ccccc2)c1,,"inconclusive: 28.2 µM [inhibitor, partial curve, poor fit]",
CCCS(=O)(=O)N1CC(c2nc(Cc3cccnc3)no2)C1,inactive: -8.49%,,
O=C([C@@H]1C[C@H](c2ccc(F)cc2)N(Cc2ccccc2Cl)C1)N1CCOCC1,,"inconclusive: 89.1 µM [inhibitor, partial curve, poor fit]",
CCn1ccc(C(=O)N2CC(N(C)Cc3cccnc3)C2)n1,inactive: 2.31%,,
CC(C)C(=O)N1Cc2ccccc2CC2(CCN(Cc3ccncc3)C2)C1 (stereo not given),inactive: -29%,,
Cc1ccccc1S(=O)(=O)N1CCCC2(C1)Nc1cccnc1NC2=NC1CCCC1 (stereo not given),,"inconclusive: 50.1 µM [inhibitor, partial curve, poor fit]",
COc1ccccc1-c1cc(C(=O)NCc2ccccc2F)nn2cnnc12,,"inconclusive: 79.4 µM [inhibitor, single point]",
CNC(=O)c1cccc(-c2cnc(Nc3ccc(Cl)cn3)c3c2CCO3)c1,,"inconclusive: 50.1 µM [inhibitor, full curve]",
CNC(=O)c1cc(C2CC2)nc2c1c(C1CCCN(C(=O)C3CCCC3)C1)nn2C (stereo not given),,"inconclusive: 15.8 µM [inhibitor, full curve, poor fit]",
CNC(=O)c1cc(C2CC2)nc2onc(C3CCCN3C(=O)c3ccncc3)c12 (stereo not given),,,inactive
O=C1[C@H]2CN(Cc3ccc(F)cc3Cl)C[C@H]2C(=O)N1CCN1CCc2ccccc2C1,,"inconclusive: 50.1 µM [inhibitor, partial curve, poor fit]",
